Experimental data: PubChem BioAssay AID588342 (National Center for Advancing Translational Sciences (NCATS), 2011)
Values joined by “and” are separate entries in the source; they are usually repeats but may differ in a detail not shown here. Equal entries are not always repeated. Out of some 360,000 compounds screened, about 25,000 (6.9%) were called active. The shares of active, inactive and inconclusive entries below differ from those in the screen. Calls follow the shape of the dose curve; as a rule, active = well fitted inhibition curve with a large enough effect; inconclusive = small, poorly fitted or top-dose-only effect; inactive = flat fitted curve, though single readings scatter. Potencies of inconclusive entries are doubtful fits and often do not repeat.

What follows are compounds tested against Luciferin 4-monooxygenase (Photinus pyralis) (UniProt P08659) (assay: qHTS profiling assay for firefly luciferase inhibitor/activator using purifed enzyme and Km concentrations of substrates (counterscreen for miR-21 project)). Conditions: purified FLuc, luminescence inhibition; activity change, negative = inhibition: at 57.5 µM (top of the series).
How it was run: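 Purified P. pyralis luciferase, 10 nM final, with Km-level 10 uM D-luciferin and 10 uM ATP in 50 mM Tris acetate pH 7.5, 10 mM Mg acetate, 0.01% Tween-20, 0.05% BSA; 6-point qHTS titration about 60 µM downward; luminescence read.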
Also: nearly all actives have a fitted effect of over 55% in size.
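For activity change, negative = inhibition in this document: plate controls were vehicle for no effect and reference inhibitor for full effect.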
Potency is read from the fitted curve at half-maximal effect; tags tell the direction and shape of the fitted curve.

UniProt P08659, sequence (P08659 whole entry, looked up): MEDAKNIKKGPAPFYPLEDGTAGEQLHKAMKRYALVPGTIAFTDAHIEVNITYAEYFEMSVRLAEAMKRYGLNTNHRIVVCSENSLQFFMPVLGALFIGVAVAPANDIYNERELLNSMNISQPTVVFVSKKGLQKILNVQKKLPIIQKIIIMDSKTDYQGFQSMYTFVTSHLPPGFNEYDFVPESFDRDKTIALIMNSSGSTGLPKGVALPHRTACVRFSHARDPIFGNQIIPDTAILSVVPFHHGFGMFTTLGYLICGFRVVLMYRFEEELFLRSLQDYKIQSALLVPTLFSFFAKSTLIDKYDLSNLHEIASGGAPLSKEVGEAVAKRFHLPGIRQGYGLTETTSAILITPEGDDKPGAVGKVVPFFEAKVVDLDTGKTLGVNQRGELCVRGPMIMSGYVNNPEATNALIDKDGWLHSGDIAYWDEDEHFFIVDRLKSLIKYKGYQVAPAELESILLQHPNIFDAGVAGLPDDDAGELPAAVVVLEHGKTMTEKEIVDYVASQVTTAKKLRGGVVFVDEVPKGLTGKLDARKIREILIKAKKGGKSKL

| Compound | Potency | activity change, negative = inhibition |
| --- | --- | --- |
| CCc1nnc(NC(=O)c2nc(SCc3ccccc3F)ncc2Cl)s1 | inconclusive: 16.9 µM [inhibitor, partial curve] | – |
| O=S(=O)(Nc1ccc(O)c(NS(=O)(=O)c2ccccc2)c1)c1ccccc1 | inconclusive: 10.7 µM [inhibitor, partial curve, poor fit] | – |
| Cc1ccc(NC(=O)c2ccc(OCc3c(C)noc3C)cc2)cc1 | – | inactive: -9.54% |
| CC(=O)c1c(C)[nH]c(C(=O)CSc2nnc3ccccn23)c1C | inconclusive: 37.9 µM [inhibitor, partial curve, poor fit] | – |
| CSCCC1NC(=O)N(CC(=O)Nc2ccc(-c3ccccc3)cc2)C1=O (stereo not drawn) | inconclusive: 9.53 µM [inhibitor, partial curve] | – |
| COc1cc2cnc(-c3ccccc3)c(-c3ccc([N+](=O)[O-])cc3)c2cc1OC | inconclusive: 26.9 µM [inhibitor, partial curve, poor fit] | – |
| COc1ccc(/C=C2\SC(=S)N(CCC(=O)N3CCCCC3CCO)C2=O)cc1 (stereo not drawn) | inconclusive: 15.1 µM [inhibitor, partial curve] | – |
| Cc1ccc2oc(C(=O)NCc3ccc4c(c3)OCO4)c(C)c2c1 | inconclusive: 23.9 µM [inhibitor, partial curve, poor fit] | – |
| CCOc1ccc(NC(=O)c2cnsn2)cc1 | active: 6.01 µM | – |
| COc1ccc(/C=N/NC(=O)c2ccoc2C)cc1O | inconclusive: 23.9 µM [inhibitor, single point] | – |
| O=C(O)c1cccc(N2C(=O)/C(=C/c3ccc([N+](=O)[O-])cc3)C=C2c2ccccc2)c1 | active: 23.9 µM | – |
| Cc1ccc(-c2nnc(Nc3ccc4c(c3)OCO4)c3ccccc23)cc1S(N)(=O)=O | active: 23.9 µM | – |
| C=CCNC(=S)Nc1sc2c(c1C(N)=O)CCCC2 | active: 15.1 µM | – |
| COc1ccc(Nc2c(-c3ccc(C)o3)nc3cc(C)ccn23)cc1 | active: 16.9 µM | – |
| Cc1ccc2oc(-c3ccc(C)c(NC(=O)/C=C/c4ccc(Cl)cc4)c3)nc2c1 | active: 12 µM | – |
| CC(=O)N1CCC(N(Cc2ccco2)C(=O)Nc2ccc(C)c(Cl)c2)CC1 | – | inactive: 0.633% |
| O=C(Nc1cccc(NC(=O)c2ccco2)c1)c1cccc(Br)c1 | inconclusive: 21.3 µM [inhibitor, single point] | – |
| O=C(O)c1cc(-c2ccccc2)nc2ccccc12 | active: 21.3 µM and active: 23.9 µM | – |
| COc1cccc(NC(=O)C(=O)N2CCOCC2)c1 | active: 19 µM | – |
| Cc1ccccc1COc1ccc2oc(C)c(C(=O)O)c2c1 | inconclusive: 21.3 µM [inhibitor, partial curve, poor fit] | – |
| O=C(CSc1ccccn1)N1CCc2ccccc21 | active: 10.7 µM | – |
| O=C(CCC(=O)Nc1ccc(Br)cc1)N/N=C/c1ccccc1O | inconclusive: 21.3 µM [inhibitor, partial curve] | – |
| Cc1nc(NCc2ccc3c(c2)OCO3)c2oc3ccccc3c2n1 | inconclusive: 37.9 µM [inhibitor, single point] | – |
| COc1ccc(NC(=O)c2cc3sccc3n2Cc2ccc(F)cc2)cc1OC | inconclusive: 16.9 µM [inhibitor, partial curve] | – |

| Compound | Potency | activity change, negative = inhibition |
| --- | --- | --- |
| Clc1ccccc1/C=N/Nc1cc(N2CCOCC2)ncn1 | inconclusive: 1.2 µM [inhibitor, full curve] | – |
| CCOCc1c(C(=O)Nc2ccccc2N2CCN(C)CC2)oc2ccccc12 | – | inactive: 0.161% |
| CC1CCN(c2ccc(NC(=O)c3cccnc3)cc2)CC1 | active: 12 µM | – |
| O=C(Cc1cccs1)N/N=C/C(Br)=C/c1ccccc1 | inconclusive: 3.01 µM [inhibitor, full curve] | – |
| C/C(=N/Nc1ccnc2cc(Cl)ccc12)c1ccc(N)cc1 | inconclusive: 21.3 µM [inhibitor, single point] | – |
| COc1ccc(NC(=O)C2CCC2)cc1S(=O)(=O)N1CCOCC1 | – | inactive: 2.78% |
| CCOC(=O)N1CCN(c2ccc(S(=O)(=O)N(Cc3ccccc3)Cc3ccccc3)cn2)CC1 | – | inactive: 0.549% |
| CC(=O)N1CCCN(Cc2cn(-c3ccc(C)cc3)nc2-c2ccc(F)cc2)CC1 | inconclusive: 26.9 µM [inhibitor, single point] | – |
| O=[N+]([O-])c1cc2c(cc1CN1CCN(CCOCCO)CC1)OCO2 | – | inactive: 1.85% |
| COc1cc(OC)c(OC)cc1/C=N/Nc1ncnc2c1[nH]c1ccc(C)cc12 | inconclusive: 0.478 µM [inhibitor, full curve] | – |
| CCOc1ccc(CCNC(=O)c2cc(=O)[nH]c3ccc(S(=O)(=O)N4CCCCC4C)cc23)cc1OCC (stereo not drawn) | – | inactive: 6.98% |
| O=C(Nc1ccc(NC(=O)c2cccs2)cn1)c1ccccc1 | active: 5.36 µM | – |
| Cc1cc(C(=O)COc2cccc3cccnc23)c(C)n1C | active: 16.9 µM | – |
| Cc1cccc(NC(=S)N/N=C/c2c[nH]c3ccccc23)c1 | inconclusive: 8.49 µM [inhibitor, single point] | – |
| Cc1ccc(OCc2cc(C(=O)N3CCN(C4CCCCC4)CC3)no2)cc1C | inconclusive: 26.9 µM [inhibitor, partial curve, poor fit] | – |
| CCn1c(/N=C/c2c[nH]c3ccccc23)nc2ccccc21 | active: 0.536 µM | – |
| O=S(=O)(O)c1cc(O)ccc1O | inconclusive: 26.9 µM [inhibitor, partial curve, poor fit] | – |
| COc1ccc(OCc2cc(C(=O)NCC(C)(C)N3CCOCC3)no2)c(Cl)c1 | inconclusive: 19 µM [inhibitor, partial curve] | – |
| COCCNC(=S)N1CCc2cc(OC)c(OC)cc2C1COc1ccc(C(C)C)cc1 (stereo not drawn) | – | inactive: -2.06% |
| O=C(Nc1nc(-c2ccc(F)c(F)c2)cs1)Nc1ccc(F)cc1F | – | inactive: 1.37% |
| O=C(Nc1cc(Cl)ccc1Cl)c1ccc(OC(=O)c2ccco2)cc1 | – | inactive: -2.98% |
| C/C(CC(=O)Nc1cccc(F)c1)=N\NC(=O)C(=O)NC1CCCCC1 | – | inactive: -1.86% |
| CCOC(=O)c1ccc(NCc2nc3ccccc3n2C)cc1 | inconclusive: 8.49 µM [inhibitor, partial curve, poor fit] | – |
| Clc1ccc(Cn2ccc(C3CC3)n2)cc1 | inconclusive: 21.3 µM [inhibitor, single point] | – |
